{"source": "PubChem BioAssay AID463173", "about": "(ICCB-Longwood Screening Facility, Harvard Medical School, 2010)", "note": "Among all 52,000 compounds or so, about 1,700 (3.3%) were called active. Rule as the data show it: active = survival mostly below about 52% (no sharp cut-off); inactive = mostly above about 56%. The list shows a part of the results."}
{"test_system": "Wild type", "experiment": "growth inhibition of S. aureus wild type versus tarO mutant, primary screen, teichoic acid synthesis inhibitors, RN4220, OD600 (AID 463173)", "details": "S. aureus RN4220 wild type/DeltatarO growth, OD600, 18 h, hits give low values, screened at 18.75 µg/mL (by protocol)"}
{"smiles": "CC(C)Oc1ccc(-c2nc3c(C#N)c[nH]n3c2NC2CCCCC2)cc1", "survival": "inactive: 55%"}
{"smiles": "COc1ccc(N2CC(NC(=O)C(c3ccccc3)c3ccccc3)CC2=O)cc1OC", "note": "(stereo not drawn)", "survival": "inactive: 72%"}
{"smiles": "COCCCNC(=O)CCC(=O)NNc1nc2ccccc2c2nc(C)nn12", "survival": "inactive: 81%"}
{"smiles": "COc1ccccc1CNC(=O)c1ccc2nc(CCc3ccccc3)oc2c1", "survival": "inactive: 77%"}
{"smiles": "COc1ccc(-c2nc(SCC(=O)Nc3c(C)cc(C)cc3C)n[nH]2)cc1", "survival": "inactive: 78%"}
{"smiles": "COc1ccc(Cn2c(=O)c3cccnc3n(Cc3cccc(F)c3)c2=O)cc1", "survival": "inactive: 90%"}
{"smiles": "COc1cccc(-c2nc(S(=O)(=O)c3ccc(C)cc3)c(N3CCCCC3)o2)c1", "survival": "inactive: 45%"}
{"smiles": "COC(=O)c1ccc(C(=O)OC)c(NC(=O)c2ccc(-c3ccccc3)s2)c1", "survival": "inactive: 130%"}
{"smiles": "Cc1cccc(C)c1NC(=O)c1sc(-n2nc(C)c(Cc3ccccc3)c2C)nc1C", "survival": "inactive: 81%"}
{"smiles": "O=C(CSc1ncc(S(=O)(=O)c2ccc(Cl)cc2)c(=O)[nH]1)Nc1cccc(C(F)(F)F)c1", "survival": "inactive: 78%"}
{"smiles": "N#Cc1cc(C#N)c(SCC(N)=O)nc1N", "survival": "inactive: 106%"}
{"smiles": "Cc1cc(OCC(=O)N(Cc2ccc(N(C)C)cc2)CC2CCCO2)ccc1Cl", "note": "(stereo not drawn)", "survival": "inactive: 71%"}
{"smiles": "CCOC(=O)c1ccccc1NC(=O)CSc1nccn1Cc1ccco1", "survival": "inactive: 70%"}
{"smiles": "COc1ccccc1NC(=O)c1c(C)cc(C)nc1SCC(=O)c1ccc(Cl)cc1", "survival": "inactive: 105%"}
{"smiles": "CC(C)Oc1ccc(C(=O)N(Cc2ccco2)Cc2cccs2)cc1", "survival": "inactive: 70%"}
{"smiles": "COc1ccc(-c2cc3nc(C)c(CCC(=O)NC4CCCCC4)c(C)n3n2)c(OC)c1", "survival": "inactive: 70%"}
{"smiles": "COc1cc(C2Nc3c(C)cc(C)cc3-c3cc(C)nn32)cc(OC)c1O", "note": "(stereo not drawn)", "survival": "inactive: 97%"}
{"smiles": "O=C(c1cccn1-c1nnc(N2CCCC2)s1)N1CCN(c2ccc(Cl)cc2)CC1", "survival": "inactive: 45%"}
{"smiles": "CCCS(=O)(=O)NCCc1sc2nc(-c3ccc(F)cc3)nn2c1C", "survival": "inactive: 60%"}
{"smiles": "Cc1cc(C)n(-c2nnc(Nc3ccc(C)c(Cl)c3)c3ccccc23)n1", "survival": "inactive: 127%"}
{"smiles": "Cn1c(=O)[nH]c2cc(-c3noc(-c4ccc(C#N)cc4)n3)ccc21", "survival": "inactive: 70%"}
{"smiles": "Cc1ccc2c(c1)C(c1ccccc1)N(C(=O)Cc1ccc(F)cc1)CC(=O)N2", "note": "(stereo not drawn)", "survival": "inactive: 76%"}
{"smiles": "Cn1nnc(C(O)CN2CCOCC2)n1", "note": "(stereo not drawn)", "survival": "inactive: 114%"}
{"smiles": "COc1ccc(Cn2c(C(=O)O)c(CNCCc3cc(OC)ccc3OC)c3ccc(C)cc32)cc1", "survival": "inactive: 100%"}
{"smiles": "COc1ccc(C2=NC(C)(C)N(CC(=O)Nc3cccc(C)c3)C2=O)cc1", "survival": "inactive: 75%"}
{"smiles": "CN(C)C(=O)c1c(NC(=O)c2ccccc2F)sc2c1CCCC2", "survival": "inactive: 82%"}
{"smiles": "CC(=O)Nc1ccc(S(=O)(=O)NCC2CCC(C(=O)NCCN(CC(C)C)CC(C)C)CC2)cc1", "note": "(stereo not drawn)", "survival": "inactive: 55%"}
{"smiles": "Cc1ccc2[nH]c(=O)c(CNC3CCCC3)cc2c1", "survival": "inactive: 107%"}
{"smiles": "COc1ccccc1NC(=O)CSc1nc2ccccc2cc1C#N", "survival": "inactive: 113%"}
{"smiles": "Cc1ccc(S(=O)(=O)Nc2nc3n(n2)C(c2ccc(F)cc2)C=C(c2ccccc2)N3)cc1", "note": "(stereo not drawn)", "survival": "inactive: 33%"}
{"smiles": "CC1=C(C(=O)Nc2ccc(Cl)cc2)C(CC(C)C)n2nc(SCc3ccccc3C)nc2N1", "note": "(stereo not drawn)", "survival": "inactive: 129%"}
{"smiles": "O=C(COc1ccc2ccccc2c1)NC1CC(=O)N(c2cccc(F)c2)C1", "note": "(stereo not drawn)", "survival": "inactive: 121%"}
{"smiles": "COc1cc(C2C(=O)N(C3CCCCCC3)CC(=O)N2CCc2ccccc2)ccc1OC(C)C", "note": "(stereo not drawn)", "survival": "inactive: 87%"}
{"smiles": "Cc1ccc(C)c(-n2c(N)c(C#N)c3nc4ccccc4nc32)c1", "survival": "inactive: 149%"}
{"smiles": "COc1ccccc1CNS(=O)(=O)c1cnc(N)nc1", "survival": "inactive: 67%"}
{"smiles": "Cc1nc2ccn(Cc3ccco3)c(=O)c2cc1C(=O)NCc1ccccc1", "survival": "inactive: 71%"}
{"smiles": "COc1cccc(CNc2cc(C)nc3nc(-c4ccc(C)cc4)nn23)c1", "survival": "inactive: 72%"}
{"smiles": "O=C(NCC(c1ccco1)S(=O)(=O)c1cccs1)c1ccccc1F", "note": "(stereo not drawn)", "survival": "inactive: 80%"}
{"smiles": "Cc1ccc(N2CC(C)Cn3c2nc2c3c(=O)n(Cc3cccc(Cl)c3)c(=O)n2C)cc1", "note": "(stereo not drawn)", "survival": "inactive: 77%"}
{"smiles": "COc1ccc(NC(=O)c2oc3ccc(S(=O)(=O)N4CCOCC4)cc3c2C)cc1", "survival": "inactive: 136%"}
{"smiles": "CCCc1cc(=O)[nH]c2nnc(SCC)n12", "survival": "inactive: 74%"}
{"smiles": "O=c1oc2ccc3ccccc3c2cc1-c1nnc(Nc2ccc(F)cc2)s1", "survival": "inactive: 72%"}
{"smiles": "COc1ccc(C2c3c(n(C)c4ccccc34)C(=O)N2CC(=O)Nc2cccc(F)c2)cc1", "note": "(stereo not drawn)", "survival": "inactive: 85%"}
{"smiles": "Cc1ccc(-n2nc3c(=O)n(C(C)C(=O)NCc4ccco4)nc(C)c3c2C)cc1", "note": "(stereo not drawn)", "survival": "inactive: 60%"}
{"smiles": "Cc1ccc(Cl)cc1N1CCN(CCCNC(=O)c2ccc3nc(N4CCCCC4)sc3c2)CC1", "survival": "inactive: 45%"}
{"smiles": "O=C(NC1(C(F)(F)F)NC(=O)N(CCc2ccccc2)C1=O)c1ccc(Cl)cc1", "note": "(stereo not drawn)", "survival": "inactive: 82%"}
{"smiles": "CCn1ccc2c(OCC(=O)Nc3ccccc3C(F)(F)F)cccc2c1=O", "survival": "inactive: 80%"}
{"smiles": "Cn1c(=O)c2c(nc(Sc3nc4ccccc4n3CC(=O)N3CCCCC3)n2C)n(C)c1=O", "survival": "inactive: 106%"}
{"smiles": "Oc1c(C(c2ccccc2)N2CCC(O)CC2)sc2nc(-c3ccco3)nn12", "note": "(stereo not drawn)", "survival": "inactive: 73%"}
{"smiles": "COC(=O)CC1Oc2ccc(Cl)cc2-n2cc(-c3ccccc3)nc21", "note": "(stereo not drawn)", "survival": "inactive: 96%"}
{"smiles": "CN(C)S(=O)(=O)c1ccc(S(=O)(=O)N2CCC(O)CC2)cc1", "survival": "inactive: 103%"}
{"smiles": "CC1CC(C)CN(C(=O)CNCc2ccco2)C1", "note": "(stereo not drawn)", "survival": "inactive: 96%"}
{"smiles": "CCCCOc1cccc(C(=O)N(Cc2ccc(C)o2)c2ccccn2)c1", "survival": "inactive: 86%"}
{"smiles": "CCOc1ccc(CCNC(=O)c2cnc3sc(N4CCCC4)nn3c2=O)cc1", "survival": "inactive: 72%"}
{"smiles": "CC(=O)Nc1ccc(NC(=O)c2ccc3c(c2)N(Cc2cccc(Cl)c2)C(=O)c2ccccc2S3(=O)=O)cc1", "survival": "inactive: 168%"}
{"smiles": "CCOC(=O)C(C)Sc1ccc2nnc(CCNS(=O)(=O)c3ccccc3)n2n1", "note": "(stereo not drawn)", "survival": "inactive: 88%"}
{"smiles": "CCn1c(CN2CCCCC2)nc2cc(NC(=O)c3cc(OC)c(OC)c(OC)c3)ccc21", "survival": "inactive: 85%"}
{"smiles": "Cc1ccc(C)c(NC(=O)c2ccc(CN3CC(=O)N4CCCCC4C3=O)cc2)c1", "note": "(stereo not drawn)", "survival": "inactive: 53%"}
